We go through 63 molecules from PubChem BioAssay AID1508623 (National Center for Advancing Translational Sciences (NCATS), 2021).

SMILES strings stand for the structures. The campaign covered roughly 48,000 compounds. About 450 (0.94%) were called active. Roughly 19% stayed inconclusive and do not appear here. Calls follow the shape of the dose curve; as a rule, active = well fitted inhibition curve with a large enough effect; inconclusive = small, poorly fitted or top-dose-only effect; inactive = no such curve, though single readings can be large or run the other way. This is one part of the list.

A short description of the assay: Primary qHTS for Identification of Small Molecule Inhibitors of Huntingtin Promoter Activity. Also: nearly all actives have a fitted effect of over 50% in size. Conditions: HEK293 HTT promoter firefly luciferase reporter (activity 0% = vehicle and -100% = no light), 24 h; series mostly up to 57.5 µM; activity change, negative = inhibition: at the top concentration. Put shortly:
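Luminescence was read after Dual-Glo reagent and a 10 min room-temperature incubation. Values were normalized to vehicle (0% activity) and zero RLU (-100% activity). Reporter HEK293 cells had been exposed to compounds (up to 57.5 uM final) for 24 h.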
Background: Quantitative high-throughput screening tests each substance at several concentrations.
On to `Cc1ccn2c(Nc3ccccc3)c(-c3c[nH]c4ccccc34)nc2c1`, for which the “activity change, negative = inhibition” value was inactive: 54.4%.

`Cc1cc(C)cc(NC(=O)C(=O)NCCc2sc(-c3cccc(F)c3)nc2C)c1`: the “activity change, negative = inhibition” value was inactive: -16.9%.

As to `CC(=O)Nc1ccc(NC(=O)c2ccc3c(c2)CCN3S(=O)(=O)c2ccc(C)cc2)cc1`, the “activity change, negative = inhibition” value is inactive: -21.3%.

`Cc1noc(Cn2c(=O)c3ccccc3n(CC(=O)Nc3cc(Cl)ccc3C)c2=O)n1`: the “activity change, negative = inhibition” value was inactive: -4.94%.

With `CCOC(=O)c1[nH]c2ccccc2c1NC(=O)c1ccc(C)c(C)c1`, the “activity change, negative = inhibition” value was inactive: 9.87%.

For the molecule `O=C(CSc1n[nH]c(-c2ccccc2)n1)N1CCN(c2ccc(F)cc2)CC1`, the “activity change, negative = inhibition” value was inactive: -2.88%.

As to `Cc1ccc(-c2nnc(Nc3ccc(OCC(N)=O)cc3)c3ccccc23)cc1S(=O)(=O)NCC1CCCO1` (stereo not drawn), the “activity change, negative = inhibition” value is inactive: -7.66%.

`O=C(O)C(S)C(S)C(=O)O` (stereo not drawn): the “activity change, negative = inhibition” value was inactive: -6.18%.

Regarding `Cc1ccc(-n2c(=O)c3c(cnn3C)n(CC(=O)Nc3cccc(Cl)c3)c2=O)cc1`, the “activity change, negative = inhibition” value is inactive: -9.48%.

For `CCOc1ccccc1NC(=O)CN1C(=O)CC(c2ccc(C)c(C)c2)=Nc2ccccc21`, the “activity change, negative = inhibition” value is inactive: 78.2%.

Regarding `CCn1nc(C(=O)O)c(=O)c2cc3c(cc21)OCO3`, the “activity change, negative = inhibition” value was inactive: 7.52%.

With `CCc1ccccc1NC(=O)CCn1cccn1`, the “activity change, negative = inhibition” value is inactive: -7.01%.

`Cc1ccc(CSc2nc3ccccc3c3nc(CCn4c(C)nc5ccccc54)nn23)cc1`: the “activity change, negative = inhibition” value was inactive: 5.25%.

Consider `CCOc1ccc(NC(=O)c2ccc3c(=O)n4c(nc3c2)CCCCC4)cc1`, for which the “activity change, negative = inhibition” value is inactive: -10.4%.

Take `Cc1cc(C)cc(NC(=O)C(C)N2Cc3ccccc3C2=O)c1` (stereo not drawn): the “activity change, negative = inhibition” value is inactive: -13.9%.

Turning to `Cc1ccc(-c2nnc(SCc3ccccc3)o2)cc1`, the “activity change, negative = inhibition” value was inactive: 66.7%.

For the molecule `CCCNC(=O)CN1C(=O)COc2ccc(S(=O)(=O)N3CCCCCC3)cc21`, the “activity change, negative = inhibition” value was inactive: -3.01%.

Take `CCc1ccc(CNC(=O)CN2C(=O)C3CCCCN3c3ccc(C(=O)N4CCCC4)cc32)cc1` (stereo not drawn): the “activity change, negative = inhibition” value is inactive: -14.9%.

`CC1CCN(S(=O)(=O)c2ccc3c(c2)N(C)C(=O)CC(=O)N3C)CC1`: the “activity change, negative = inhibition” value is inactive: -11.4%.

Turning to `COc1ccccc1NC(=O)c1cc2c(-c3ccccc3)nn(-c3ccccc3)c2s1`, the “activity change, negative = inhibition” value was inactive: -7.91%.

For `CCc1ccccc1NC(=O)Cn1c(=O)n(C(C)C)c(=O)c2oc3ccccc3c21`, the “activity change, negative = inhibition” value was inactive: -5.97%.

On to `COc1ccc(OCc2nc3ccccc3n2Cc2ccc(C(C)(C)C)cc2)cc1`, for which the “activity change, negative = inhibition” value is inactive: 8.14%.

As for `CCN(CC)C(=O)Cn1c(SCC(=O)Nc2ccc(F)cc2)nc2ccccc21`, the “activity change, negative = inhibition” value is inactive: -17.8%.

Regarding `O=S1(=O)OC(c2ccc(O)cc2)(c2ccc(O)cc2)c2ccccc21`, the “activity change, negative = inhibition” value is inactive: -5.25%.

For `Cc1cc(=O)n2nc(N3CCC(C(=O)Nc4ccc(Br)c(C)c4)CC3)sc2n1`, the “activity change, negative = inhibition” value was inactive: -14.2%.

With `COCCNC(=O)c1ccc(Cn2c(SCC(N)=O)nc3ccccc3c2=O)cc1`, the “activity change, negative = inhibition” value is inactive: -12.6%.

Take `CCOc1ccccc1C(=O)NCc1ccc2c(c1)CCN2C(=O)c1ccc(F)cc1`: the “activity change, negative = inhibition” value was inactive: -21.2%.

Take `COc1cccc(OCCSc2nc3ccccc3n2CC(=O)N2CCOCC2)c1`: the “activity change, negative = inhibition” value was inactive: -16%.

Turning to `COc1ccc2c(CNC3CCC(C)CC3)c(C(=O)O)n(Cc3ccc(F)cc3)c2c1` (stereo not drawn), the “activity change, negative = inhibition” value is inactive: -18.5%.

For `Cc1ccc(N(Cc2cccs2)C(=O)c2ccc(OC(C)C)cc2)cc1`, the “activity change, negative = inhibition” value was inactive: -22.1%.

For the molecule `CCOC(=O)c1ccccc1NC(=O)CSc1ccc(-c2sc(C)nc2C)nn1`, the “activity change, negative = inhibition” value was inactive: -10.9%.

Take `COc1ccc(-c2noc(CN(C(=O)c3ccc(C)cc3C)C(C)C)n2)cc1`: the “activity change, negative = inhibition” value was inactive: -22.3%.

For the molecule `Cc1ccc(C(=O)NCCc2csc(-c3cccc(F)c3)n2)cc1C`, the “activity change, negative = inhibition” value is inactive: -15.6%.

In the case of `CCN(C(=O)c1c(C)oc2ncnc(N3CCCCC3)c12)c1cc(C)ccc1C`, the “activity change, negative = inhibition” value was inactive: -2.99%.

For `COc1ccc(C2CC(=O)Nc3c2c(C)nn3-c2nncc(-c3ccccc3)n2)c(OC)c1OC` (stereo not drawn), the “activity change, negative = inhibition” value was inactive: -24.3%.

As for `COc1cc2nc(NCCc3cccc(C)c3)n3nc(-c4ccccc4)nc3c2cc1OC`, the “activity change, negative = inhibition” value is inactive: 4.26%.

Consider `CCOC(=O)c1cccc(NC(=O)COc2ccc3c(C)cc(=O)oc3c2)c1`, for which the “activity change, negative = inhibition” value was inactive: 14.9%.

As to `CCOC(=O)c1cnc2c(ccc3ccccc32)c1Nc1ccccc1O`, the “activity change, negative = inhibition” value was inactive: 7.59%.

Take `Cc1cc(C)cc(NC(=O)NCc2noc3ccccc23)c1`: the “activity change, negative = inhibition” value was inactive: -9.59%.

With `CCOc1ccccc1C(=O)Nc1cccc(-c2nc3ccccc3s2)c1`, the “activity change, negative = inhibition” value was inactive: 0.905%.

On to `COc1ccc(-c2cn3c(n2)sc2cc(C(=O)NCCc4ccccc4)ccc23)cc1`, for which the “activity change, negative = inhibition” value is inactive: -11.4%.

For `COc1ccccc1/C=C/c1nc(C#N)c(NCc2ccccc2)o1`, the “activity change, negative = inhibition” value is inactive: -9.44%.

Turning to `Cc1ccc(C)c(NC(=O)c2cnc(N3CCCC3)nc2C)c1`, the “activity change, negative = inhibition” value was inactive: -6.67%.

Take `Cc1cc(CS(=O)(=O)c2ccccc2)cc(OCc2ccc(CN3CCC[C@H]3CO)cc2)c1`: the “activity change, negative = inhibition” value was inactive: 3.06%.

As for `O=C(OCc1cc(=O)n2nc(C3CC3)sc2n1)c1cccc(NC(=O)c2ccccc2Cl)c1`, the “activity change, negative = inhibition” value is inactive: -18.3%.

As to `COc1ccc(-n2ncc(C(=O)NCc3cccs3)c2C2CCN(C(=O)OC(C)(C)C)CC2)cc1`, the “activity change, negative = inhibition” value is inactive: -8.83%.

In the case of `Cc1cccc(CNC(=O)C2CCN(c3nn4cc(-c5ccc(F)cc5)nc4s3)CC2)c1`, the “activity change, negative = inhibition” value is inactive: 4.37%.

In the case of `O=C(Cc1ccc(Cl)cc1)NC1CC(=O)N(c2ccc3c(c2)OCCO3)C1` (stereo not drawn), the “activity change, negative = inhibition” value was inactive: 2.62%.

`COCCOC(=O)C1=C(C)NC(C)=C(C(=O)OC/C=C/c2ccccc2)C1c1cccc([N+](=O)[O-])c1` (stereo not drawn): the “activity change, negative = inhibition” value is inactive: -28.7%.

Take `CCOc1ccc(-c2cn3c(n2)sc2cc(C(=O)NC(C)C45CC6CC(CC(C6)C4)C5)ccc23)cc1` (stereo not drawn): the “activity change, negative = inhibition” value is inactive: 15.6%.

Turning to `CC1CCN(C(=O)Cn2cc(SCC(=O)NCc3ccccc3)c3ccccc32)CC1`, the “activity change, negative = inhibition” value is inactive: -24.9%.

As to `CCOc1ccc(C(c2c(O)cc(C)n(Cc3ccco3)c2=O)N2CCN(C)CC2)cc1` (stereo not drawn), the “activity change, negative = inhibition” value is inactive: -7.05%.

Take `CCCCNc1ccc(C(=O)OCCOCCOCCOCCOCCOCCOCCOCCOCCOC)cc1`: the “activity change, negative = inhibition” value is inactive: -31.2%.

As to `CCc1nnc(NC(=O)c2nc(SCc3cccc(C)c3)ncc2Cl)s1`, the “activity change, negative = inhibition” value was inactive: -17%.

As for `O=S(=O)(c1ccccc1)n1nc(-c2ccco2)nc1NCc1ccccc1`, the “activity change, negative = inhibition” value is inactive: 37.3%.

Regarding `CCC(Sc1nnc(-c2ccc(F)cc2)c(-c2ccc(F)cc2)n1)C(=O)NC1CCCC1` (stereo not drawn), the “activity change, negative = inhibition” value is inactive: -9.98%.

Take `CC(Nc1oc(-c2ccc(COc3ccccc3)o2)nc1C#N)c1ccccc1` (stereo not drawn): the “activity change, negative = inhibition” value is inactive: -7.78%.

For `COc1cccc(N2CC(NC(=O)/C=C\c3ccccc3)CC2=O)c1` (stereo not drawn), the “activity change, negative = inhibition” value was inactive: -10.9%.

For `CCC(=O)N1CCc2cc(S(=O)(=O)CCC(=O)Nc3cc(Cl)ccc3OC)ccc21`, the “activity change, negative = inhibition” value is inactive: 0.647%.

`COc1ccc(CNC(=O)C2CCN(S(=O)(=O)c3cccc(-c4noc(C)n4)c3)CC2)cc1`: the “activity change, negative = inhibition” value was inactive: -16.4%.

With `Cc1cccc(Cn2c(CN3CCC(C(=O)NC(C)C)CC3)cc3ccccc32)c1`, the “activity change, negative = inhibition” value is inactive: 1.6%.

For the molecule `CCOc1ccc(CNC(=O)c2cc3c(=O)oc4ccc(C)cc4c3s2)cc1`, the “activity change, negative = inhibition” value is inactive: -10.6%.

For the molecule `Cc1ccccc1CNCCCSc1nnnn1C`, the “activity change, negative = inhibition” value is inactive: -7.83%.
